# Reference: the supplement of paper PMC11417369
# The list shows a part of the results.
# Test system: PfHDP1 homeodomain (GST-tagged)
# Experiment: gcPBM binding intensity (ln(normalized median fluorescence intensity)); higher = stronger DNA binding
# Procedure, shortened: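 Binding intensity values are the highest Masliner-normalised natural-log median intensity among replicate spots of either probe orientation. The binding step lasted 1 h in 1× PBS with 1% milk, 0.2 mg/ml BSA, 0.5% salmon testes DNA and 0.03% Triton X-100, using GST-tagged P. falciparum DNA-binding domains expressed in E. coli on an Agilent 4 × 180k array of primer-extended double-stranded 36-bp intergenic genomic probes plus negative controls. Alexa488 anti-GST antibody and a 488 nm scan detected bound protein.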
row,Sequence,gcPBM binding intensity (ln)
1,AAAAATTACCCATCCATACACACATATTTTTTTTAA [CACACA_site2190],6.71
2,ATGTAAGACAAAAAGGGTACATAATGCGTATGTATT [XGTACX_site4666],6.47
3,TATAAAAATAAATAAATAAATAAATAAATAAATAAA [TGCATGCA_negctrl_site310],6.53
4,GTATATAATTATATATGTACTAAATAAATATTTTTA [XGTACX_site6062],6.3
5,ATTTTTTCATATTCTACACACGTGAACAAATGTGTC [CACACA_site3007],6.67
6,TATATTTGGTTTCATTCATTTTTATAGAAATCTCAA [CACACA_negctrl_site1412],6.33
7,TATTTTTTTACATATTGTACATAATATAAAACTTAC [XGTACX_site8273],6.59
8,CACACGTATATATATACACACTAAAATACCCAGACA [CACACA_site6142],6.87
9,AATATTTTGTTATTTATTTAATCTAATATTATGATA [GTGCAC_negctrl_site258],6.08
10,ATATAATAGAAGTGTACACACATATTTATGGGTGTA [CACACA_site5686],6.36
11,AATATTTTTATATATATACACACTTACATATATATA [CACACA_site3609],6.8
12,ATAATATTGTGGTATACACACCTTACAAAAAGGTAC [CACACA_site5582],6.77
13,TTTTTAGTTAATTAAACACACAAAAAAAAAAATAAA [CACACA_site3930],6.4
14,AGGTGAATATTTTTTACACACATAAAAAAAATATAT [CACACA_site57],6.51
15,TATATATTATATATGTGTACTCACTAACAAAAATTA [XGTACX_site6285],6.46
16,TTTAAGATTTTGTAATGTACATATATACATATATAT [XGTACX_site399],6.35
17,TATATTTTTATAATAACACACGATATATGTTTAGGA [CACACA_site1283],6.13
18,AAATTATATAAAGGAACACACATTTTATTTTATTTT [CACACA_site1500],6.34
19,ATTCTTAAAAAAAAATGTACACATGAACAATATGTA [XGTACX_site362],6.18
20,TGTATATCATAAGATGGTACACGTGTGTGCGTATGC [XGTACX_site2255],7.98
21,ATTAAAATTTGTTAAAGTACTTAATAAAAATTTTTC [XGTACX_site1959],6.29
22,TATAAATCTATAAATGCACACAAGGGAAGAAAAACG [CACACA_site2965],9.3

row,Sequence,gcPBM binding intensity (ln)
1,AAAGAACAAATAAAACATAAAATAATATATATAGAT [CACACA_negctrl_site1764],6.63
2,CAAACAATTAAACAAACACACATATACAAGTATATA [CACACA_site8639],6.45
3,TATTATTCCAAGAAAAAAAAAAATAAAAAAAAAAAA [CACACA_negctrl_site1424],5.85
4,ATAAATGACAAATTAACACACATATATTATAGATAT [CACACA_site7770],6.45
5,TAATGCATTTTCGCATGTACATATTTCTCTTTATAT [XGTACX_site8915],6.47
6,ATCTATATTTAATTTACACACAAAAAAAATTGTTGG [CACACA_site6582],6.73
7,AAAATGTGATATGTAAATATATATGTATGTATATAT [CACACA_negctrl_site1748],6.49
8,AATATATGAATTATATGTACATATAGATAAGTCACA [XGTACX_site7637],6.75
9,TATTATAGAAATTTAATGTTGGACAAAAAAATGAAA [CACACA_negctrl_site1351],6.43
10,TCTTAATATCGTTTCTCACACATATACAAACATAAA [CACACA_site5700],6.74
11,AAATTATTTATTTTATGTACATATTATTAAAGTTAA [XGTACX_site552],6.26
12,AGAGAGAAAGCTATAACATGCAACAATTTTTAGAAC [TGCATGCA_site596],6.7
13,TTGCATTTTCTAGTAACACACAATTAGCGTTGCTGT [CACACA_site3594],6.46
14,TAACAAAAAGGGAACACATGCGCTCTTTATTTATTT [TGCATGCA_site620],6.36
15,TATAGAAGCATTCACACACACACATACATACACATA [CACACA_site1466],6.97
16,ATAATATTAATATGTACACACCTTAATCCTTAAAAG [CACACA_site7640],6.61
17,TATACCTGAATTAAAAGTACATGTATATATTTTCCC [XGTACX_site3594],6.24
18,ATAATTTTTTAAGTGTGTACTAAAATGTGTATTTTA [XGTACX_site6227],6.76
19,GTATTTATATGATTAACACACATATGGGTATTAATA [CACACA_site4853],6.44
20,CTTAGAATATATGAATGTACTTTTTTTTTTAAATAA [XGTACX_site6048],5.8
21,AGTATACAGATATATACACACATATATATATATATA [CACACA_site4323],9.34
22,ATAATATATTTTTGTAGTACACTTCTGGTAATATCG [XGTACX_site2402],6.83

row,Sequence,gcPBM binding intensity (ln)
1,AAAAAAAAAAATACTCGTACATAAACCTATACATTT [XGTACX_site6494],6.34
2,CAATTAGCATTTTATTGTACATTTATAATCTATGAT [XGTACX_site1445],6.56
3,TATATATATATATGTTGTACAAAAATGTAAAATATA [XGTACX_site7761],9.42
4,ATACATATAAATAATTGTACTATTAAAAAAGAACGT [XGTACX_site3751],7.04
5,TATATTTATAGGTATACACACATATGTATGTTATGT [CACACA_site7824],6.54
6,TTATGTATTTATATAAATATAAATATATATATATAT [CACACA_negctrl_site774],8.87
7,TTTCCCTTGTTGTAAACATGCACAATATTTAGGTAT [TGCATGCA_site49],8.22
8,AAAAAAAAGAAAAACACACACATATATATATAGAAT [CACACA_site1006],6.83
9,TAAGTAACTTTTAAAAGTACCCACACATATATATAT [XGTACX_site1231],8.55
10,ACAAAAATAAACTATAGTACACACTTATTATTATGA [XGTACX_site5680],6.46
11,TCATTTTATTTTTTCACACACACATCTATATTTATA [CACACA_site7547],6.89
12,TTTCTTTTTTTTTTTTTTTTTTTTTTTTTTTTTTTT [TGCATGCA_negctrl_site91],7.23
13,TTTCTTTTTTTATAATCCACATTGGGAAAATCAAAA [TGCATGCA_negctrl_site159],6.39
14,ACGTATAATATGTACACACACATATATACAAAAAAA [CACACA_site917],6.66
15,GTATAACTTTTGCGCGTACACACATTTATCCTCTTT [CACACA_site208],8.08
16,AAAGTTGTTACGAACATACACACGAACATACTCACG [CACACA_site604],6.72
17,TAGAATATCCCCTACACACCCAAATAATTTACAAAT [CACACA_site4825],7.29
18,CATATATTATTATATGCACACATGAAAATATACAAA [CACACA_site2795],9.75
19,AAAATATTTATTACTTCACACATTATTGTATTTATA [CACACA_site5082],6.5
20,TTGAAATATACGTAAGTAAATTTCATTTGGTTGTGT [XGTACX_negctrl_site600],6.18
21,TTCTTTCTGTTTTATTTATAATAATTTATGATAAAA [CACACA_negctrl_site766],6.81
22,TGTTTTTAATTTCGCACACACCTTGTGGAAAAAAAA [CACACA_site4482],6.97

row,Sequence,gcPBM binding intensity (ln)
1,AAGATATTTGAATATACACACGATTTAAATTTAATA [CACACA_site3866],6.45
2,ATATATATATTTGTATGTACATATCATATTGTGTGT [XGTACX_site1580],8.16
3,ATACGTGGGCAAAAAGTGCATATAATCAAAAAAAAA [GTGCAC_site9961],7.98
4,TATGTATTTTTATGCACACATGCGTGGCTTATATAA [CACACA_site387],10.5
5,ATATTTTCTTTAAATTGTACATATTGTGATACAAAA [XGTACX_site5886],6.53
6,TATATACATACATGTAGTACCTAATTCGGTCCCGTA [XGTACX_site2702],6.24
7,TTTCATTTAGCTTTTACACACTATATATTATTGATT [CACACA_site16],7.19
8,ATTTTTTTTTTTTTTTTTTTTTTGTTTATACAAAAT [CACACA_negctrl_site1241],6.05
9,TATATGTGTCTACAGGTGCATATATCATATATTGCT,7.99
10,ACACATACATATACATACACATTGTTTTCATGCATC [XGTACX_negctrl_site126],7.17
11,TAAATAAATTTATACACACACACACGGATATAAATA [CACACA_site6532],6.91
12,TATAAATATTTATACACACACATATATTTATATATC [CACACA_site6366],6.95
13,AAATATAAAGGATTAATATTATATATATATATATAT [XGTACX_negctrl_site211],9.24
14,GTATTATATATATAGGTGCATATATATATATAAATA [GTGCAC_site9787],9
15,GTTTGGTGGTGTTTTGGTACGTACGGGGGGGTATGT [XGTACX_site1983],8.26
16,TTTTTTTTTTTTTATTGTACTTATTTTTTTATGTTT [XGTACX_site7725],5.96
17,ATTTACATAAATTGCATATATCGATGTAAATAAATA [CACACA_negctrl_site1150],6.71
18,TCTTTTTAAACTAATAGTACATATATATTAATAAAT [XGTACX_site4217],6.2
19,CATTTATTTTTGTTCTGTACATAAAGATGAACAAAA [XGTACX_site6797],6.29
20,ATATATATATATATATGTACATATATTTATTTATTG [XGTACX_site6267],9.33
21,TAATAATTTATAATAGTGCATTTGATTTTAAAAATA,8.18
22,TTTTTATGGTAAATAAAAATATCTCCCTCCTTAATT [CACACA_negctrl_site1352],6.01
